Source: the supplement of paper PMC11417369
± gives the standard deviation of the averaged measurements. This is one part of the list.

These sequences were tested on PfAP2-G AP2 domain (GST-tagged) (assay: gcPBM binding intensity (ln(normalized median fluorescence intensity)); higher = stronger DNA binding).
Outline: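 Using an Agilent 4 × 180k array, primer-extended double-stranded 36-bp intergenic genomic probes and negative controls were exposed for 1 h to GST-fused P. falciparum DNA-binding domains expressed in E. coli. Binding was carried out in 1× PBS with 1% milk, 0.2 mg/ml BSA, 0.5% salmon testes DNA and 0.03% Triton X-100, and protein was detected with Alexa488 anti-GST antibody and a 488 nm scan. Binding intensity is the highest Masliner-normalised natural-log median intensity across replicate spots of either probe orientation.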

| Sequence | gcPBM binding intensity (ln) |
| --- | --- |
| TGATATATATATATATATATAACACACGCAAAAAAA [TGCATGCA_negctrl_site240] | 9.995 ± 0.049 |
| TATGTCAAATATATATGTACACAAATATACTATTAA [XGTACX_site2643] | 11.4 ± 0.91 |
| AATATATATATTAGAGTGCACATAATTATTTGCTAA | 10.2 ± 0.24 |
| ATAAAATATATATTAGTGCACTAAAGGAAAAAAAAT | 10.5 ± 0.32 |
| ATTTAAATAATATTCACACACAAAATTATATTTTAA [CACACA_site219] | 9.78 ± 0.042 |
| AAGTTTTCTTAAAATTGTACTTTTCAAAAATAATCT [XGTACX_site277] | 11.3 ± 0.85 |
| TTTTTAATTTATTGTGTGCACACAACTATGAGTTTT | 10.6 ± 0.47 |
| ATATGATATATATTCGGTACACATATATATAAAGAG [XGTACX_site430] | 11.2 ± 0.71 |
| TTTTCTAAAGTAAGTTAAGATATGCAAAAAAAAGAA [GTGCAC_negctrl_site242] | 10.1 ± 0.26 |
| TATTTTTTTTTTTAATGTACAAACAAATTATGTTGG [XGTACX_site2873] | 10.8 ± 0.57 |
| ATTTTTTTTATGAGGTGTACTCATATAATAACTACA [XGTACX_site5074] | 11.6 ± 0.84 |
| ATGAACTATATTAAATCACACATTATCATTTTATAT [CACACA_site4989] | 9.81 ± 0.085 |
| AATAAAAATTGGTAGGCACACATGGAACTATTAAAA [CACACA_site1257] | 10.35 ± 0.078 |
| TATAAAAGGTAAGAGTGTACAAGTAAAAAATTTTTA [XGTACX_site771] | 11.2 ± 0.7 |
| TATATATTTTAAAATAGTACATATTATATAACCCAT [XGTACX_site2194] | 11.2 ± 0.71 |
| TATCCCTTAGAATACACACCCATATGAGCGTGAACT [CACACA_site2951] | 10.1 ± 0.11 |
| TCGTATATGGATTTTGCACACAATTATAATTTAAAT [CACACA_site868] | 10.16 ± 0.057 |
| ATATATATATATATATGTACACATTAATGTTTTTTT [XGTACX_site167] | 11.4 ± 0.95 |
| AAAATAAGAAATTGAAAAATTGAAAACAAAATTAAA [CACACA_negctrl_site1285] | 9.635 ± 0.092 |
| TAAAAAATAAAAAAAGCACACACATATATATATATA [CACACA_site8567] | 10.1 ± 0.53 |
| TAATAAAACATATATACACACATTATAAATACATAT [CACACA_site5014] | 10 ± 0.13 |
| ACTACTCCATTAAGTAGTACACAAAAAAAAAAAATA [XGTACX_site7031] | 11.8 ± 1.1 |
| TTACAAATGTTTTACACACACATAATTGTATCAATT [CACACA_site6147] | 10.05 ± 0.071 |

| Sequence | gcPBM binding intensity (ln) |
| --- | --- |
| CCATTTTAAATATGCACACAGATGCACTAACCCATT [CACACA_site1883] | 10.4 ± 0.3 |
| TATAAATAAAAACACACACACATATATATATATATA [CACACA_site2319] | 10.1 ± 0.47 |
| GTTTGTAAATATTTTACACACATATATATATATATA [CACACA_site1075] | 10.1 ± 0.37 |
| ATATCCTTAAAAGATACACACATATGAATATTTTGT [CACACA_site3847] | 9.92 ± 0.014 |
| TTTATACTTGTAAATGCACACATAAGATGCGACTAA [CACACA_site8662] | 10.2 ± 0.28 |
| ATACTTTTAAATTGATGTACTTTATTTATAAGGTGA [XGTACX_site6746] | 11.3 ± 0.91 |
| TTGATTACTAGAAATGCACACACTGATAAAATAAGG [CACACA_site4134] | 10.4 ± 0.23 |
| TTGCTCACAAGAAGCACACAAAAAAAGAAAAAAAAA [CACACA_site4047] | 10 ± 0.36 |
| ATTATAGACACGCGCACACACAACAAAAAAAAAAAA [CACACA_site9180] | 10.5 ± 0.67 |
| TTGGGGTATCTTCCTATGCACACTTGTTATGTACTA [CACACA_site831] | 11.1 ± 0.65 |
| GAAAATTTCTTATTTTGTACACACAATAAATATTCA [XGTACX_site3267] | 11 ± 0.69 |
| TTCACAAAATATTATTGTACATTAAAATATTTATAT [XGTACX_site2535] | 10.9 ± 0.45 |
| TATAAAACGGATGAACAACAAATCATATGGCACAAA [TGCATGCA_negctrl_site608] | 10.23 ± 0.099 |
| TACATGATATATCACACACACATATAAATATATATA [CACACA_site2831] | 9.815 ± 0.007 |
| TTATATATTTATTTATGTACATATTTTTTTATTATA [XGTACX_site6115] | 11.4 ± 0.72 |
| TAAATATGTATTCATACATGCACATATATATATATA [TGCATGCA_site584] | 10.4 ± 0.76 |
| GTTTTTTTATTTCATCGTACAAAAAAGAAGGCTTTA [XGTACX_site5291] | 10.7 ± 0.62 |
| GGTGTTAAAAAATACACACACAAAAAAAAAAAAAAA [CACACA_site138] | 9.95 ± 0.51 |
| GGTAAGTACGACTTGACACACATACCCATATATATA [CACACA_site4837] | 11.1 ± 0.74 |
| ACAGTATCTGGTAGCTGTACGAGTCGTAGAGTGCAG [XGTACX_site2015] | 11.2 ± 0.67 |
| GCGAAATATTATTATAGTATACAAATACTTCTATGA [CACACA_negctrl_site197] | 9.91 ± 0.099 |
| TTTTTTTAATTTGGTTGTACTTAAAAAAAAAACAGA [XGTACX_site5788] | 11.5 ± 1.1 |
| TTTTTTATTATATAATTGTATATAAAATTATAATTT [GTGCAC_negctrl_site733] | 9.89 ± 0.13 |

| Sequence | gcPBM binding intensity (ln) |
| --- | --- |
| TACCTAGGATTAAAGTGTCCACATAATTTAAATAAT [XGTACX_site6736] | 11.2 ± 0.54 |
| TTCTTCTGTTTTATTACACACCATTTTGTGGATACA [CACACA_site5181] | 10.3 ± 0.16 |
| TATATAAATAGACACACACACATATAAATATAAATA [CACACA_site6503] | 10.1 ± 0.2 |
| ATTCATCTATTTTGTAGTACTAAATATATATCTACT [XGTACX_site8790] | 11.2 ± 0.76 |
| AATAAACATATATACACACACAAAAAAAAAAACATA [CACACA_site424] | 10.1 ± 0.13 |
| TAGATGTATGTACATACACACATATATAAATAAATA [CACACA_site1788] | 11.2 ± 0.87 |
| TAACTTGAATGGATATGTACATATATATATATATAT [XGTACX_site5990] | 11.1 ± 0.49 |
| TATAGATACAGATACACACACACACCGACATATATA [CACACA_site5832] | 10.1 ± 0.18 |
| TATAACAAGTTATAAAGTACAAATGTTGAATTTTAT [XGTACX_site4673] | 10.9 ± 0.69 |
| TCGGGAGGGGGGAAGCGTACATATATAAAATTATTA [XGTACX_site4683] | 11.7 ± 0.76 |
| TAAAAATTAATATAAACACACAAAAATTAATAAATA [CACACA_site381] | 9.73 ± 0.22 |
| GAATGTATATTCATGTATTTATTATTATTATTATTA [XGTACX_negctrl_site156] | 9.535 ± 0.092 |
| ATATGGCTAAAAGTTGCACACACACTAATAAAAAAA [CACACA_site9082] | 10.4 ± 0.48 |
| TATGTATTTATATTAACACACAAAAAAAAAAAAAAA [CACACA_site5070] | 9.82 ± 0.52 |
| ATTATTTTACTAAAAGATATTCCTTTTTTTTGTACT [CACACA_negctrl_site998] | 9.94 ± 0.26 |
| ATATATATATTTTGGTAGCACCTCCTTTTTTTTTTT | 9.88 ± 0.12 |
| ATATGCCTAATAAAATGTACGTTTGTTTTATTTATT [XGTACX_site3833] | 11 ± 0.49 |
| TGTATACCTTAATATACACACATACAGATATATATA [CACACA_site4860] | 9.97 ± 0.18 |
| CGATTTTTTTTTTATTGTACTTGCTCGCATGCAATA [XGTACX_site4727] | 11.2 ± 0.75 |
| TTATATGTATATATATGTATATATATATATATATAG [TGCATGCA_negctrl_site461] | 9.49 ± 0.14 |
| TACAATCTTTCATTATGTACTTAACATTTTTTCTGT [XGTACX_site8752] | 11.1 ± 0.54 |
| AACAGGTCATAATTTACACACTATATATCTTATTAT [CACACA_site6461] | 10.3 ± 0.25 |
| TTCATAAGAAGGAACTGTACATATTTTTCATTTTTT [XGTACX_site6770] | 11.2 ± 0.68 |

| Sequence | gcPBM binding intensity (ln) |
| --- | --- |
| ACAAAAGGGGAATACACACACATATATAAATAAATA [CACACA_site7111] | 10.2 ± 0.28 |
| CATATTTTTATGAGATGTACAATAAGAAATATGTAA [XGTACX_site2389] | 11.1 ± 0.7 |
| TGTTTTATTTAGAAGGTGCACATTAATATTAAATAA | 10.6 ± 0.7 |
| ATATGCATTTTTATACGTACATATTTCTTTTCGTTA [XGTACX_site1497] | 11.5 ± 0.88 |
| ATTTATTTATATATATTATTTGTTTTAATTTACTTA [XGTACX_negctrl_site246] | 9.49 ± 0.21 |
| TATTGTTGTCTTTACACATGCAACAAAAGAAGAAAA [TGCATGCA_site911] | 10.2 ± 0.29 |
| TTATCCTTGTAACAATGTACACATTATTTAATACTT [XGTACX_site1830] | 11.3 ± 0.62 |
| TCGTGAATGATTTAAGTACACACCGGTATTTATTCA [CACACA_site1564] | 11.2 ± 0.71 |
| GCATAAACGGATAATTAATTATATTATATTATATCA [CACACA_negctrl_site1519] | 9.855 ± 0.049 |
| CATACAGATGGACACACACACACACCCACAGACAAA [CACACA_site4431] | 11.2 ± 0.93 |
| TTTTTTTTTTGATGCACACACCTGAACGAGTTAATA [CACACA_site4329] | 10.3 ± 0.37 |
| TATATATAGCATATTTCACACACACCGAATGAATAT [CACACA_site9182] | 9.965 ± 0.035 |
| TTTCTTGGGAGACATGCATGTACCAGAACAAAATAA [TGCATGCA_site272] | 10.9 ± 0.64 |
| TATTCTAATATTTATACACACATAACTTTGATAAAT [CACACA_site6418] | 9.97 ± 0.11 |
| TACAAAATAGTTTACACACACATATATATACATATA [CACACA_site2615] | 10.1 ± 0.33 |
| TTTATTTTTATGGTCACACATATTTTTAAAACTATA [CACACA_site4372] | 11.3 ± 0.88 |
| TTTTTTTTTTTATATACTGGAAATATATTTAATTTA [GTGCAC_negctrl_site250] | 9.83 ± 0.27 |
| TAAAAACAAAAATGCACACATAATAAGCATATGTAT [CACACA_site3469] | 9.82 ± 0.071 |
| CACCCATAGAAACACACACACGCATAAAAAAAAAAA [CACACA_site1513] | 10.2 ± 0.43 |
| TATGTTAATCCTATTTGTACATATAATCGAATTAAA [XGTACX_site7090] | 10.8 ± 0.57 |
